{"source": "the supplement of paper PMC10126150", "note": "Sequences with one replicate were seen in a single cluster, so their values are uncertain.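 Also: ATP exposure 15 min at 22 °C before imaging.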", "data": [{"test_system": "ATP", "assay": "switch fluorescence ratio, 500 uM ATP over buffer (Cy3 cluster intensity, sum of 5 cycles each) (fold (ratio)); higher = stronger signal-on switching upon ATP binding; sequences stand for … in TCGTCGGCAGCGTCAGATGTGTATAAGAGACAGTTTTTTTTTTTTTTTTTTTTTTTTT…TC", "details": "aptamer strand: ATP DNA aptamer (quencher-CACCTGGGGGAGTATTGCGGAGGAAGG + anchor), 100 nM annealed; ATP concentration: 500 uM; one replicate", "outline": "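Clusters with intensities outside 100-1000 RFU were excluded. The remaining Cy3-labelled switching-strand clusters on a modified Illumina MiSeq flow-cell had been annealed to 100 nM quencher-labelled ATP aptamer and imaged in selection buffer, then after 15 min with 500 uM ATP at 22 °C, for five cycles separated by NaOH stripping and re-annealing. The fluorescence ratio, averaged per switch-domain sequence, is each cluster's summed target-cycle Cy3 intensity over its summed buffer-cycle Cy3 intensity.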", "values": [{"sequence": "TATACCCGAA", "switch fluorescence ratio": 1.05}, {"sequence": "TATACCGACT", "switch fluorescence ratio": 1.05}, {"sequence": "TATACCTCT", "switch fluorescence ratio": 1}, {"sequence": "TATACGCGCA", "switch fluorescence ratio": 1.03}, {"sequence": "TATAGAGGCG", "switch fluorescence ratio": 1.03}, {"sequence": "TATAGAGGGC", "switch fluorescence ratio": 1.03}, {"sequence": "TATAGGACAG", "switch fluorescence ratio": 1.01}, {"sequence": "TATAGGACGG", "switch fluorescence ratio": 1.01}, {"sequence": "TATAGGCACA", "switch fluorescence ratio": 1.05}, {"sequence": "TATAGGCCTG", "switch fluorescence ratio": 1.01}, {"sequence": "TATAGGTGTG", "switch fluorescence ratio": 0.995}, {"sequence": "TATAGTAATG", "switch fluorescence ratio": 0.985}, {"sequence": "TATAGTCCGT", "switch fluorescence ratio": 0.969}, {"sequence": "TATAGTCCTA", "switch fluorescence ratio": 0.989}, {"sequence": "TATAGTCTTG", "switch fluorescence ratio": 1.01}, {"sequence": "TATATAAAGC", "switch fluorescence ratio": 0.98}, {"sequence": "TATATAACCC", "switch fluorescence ratio": 0.977}, {"sequence": "TATATATACA", "switch fluorescence ratio": 0.983}, {"sequence": "TATATATTCT", "switch fluorescence ratio": 1.01}, {"sequence": "TATATCACAC", "switch fluorescence ratio": 1.08}, {"sequence": "TATATCGTGG", "switch fluorescence ratio": 0.946}, {"sequence": "TATATCTACC", "switch fluorescence ratio": 1.09}, {"sequence": "TATATGGA", "switch fluorescence ratio": 1.02}, {"sequence": "TATATGGCTA", "switch fluorescence ratio": 0.991}, {"sequence": "TATATGGCTT", "switch fluorescence ratio": 0.995}, {"sequence": "TATATGGTAC", "switch fluorescence ratio": 1.07}, {"sequence": "TATATTCT", "switch fluorescence ratio": 0.979}, {"sequence": "TATATTCTTC", "switch fluorescence ratio": 1.22}, {"sequence": "TATATTTCAA", "switch fluorescence ratio": 0.984}, {"sequence": "TATCAACTGT", "switch fluorescence ratio": 0.992}, {"sequence": "TATCAATGGA", "switch fluorescence ratio": 1.02}, {"sequence": "TATCAATTAC", "switch fluorescence ratio": 1.11}, {"sequence": "TATCAATTGT", "switch fluorescence ratio": 0.99}, {"sequence": "TATCACAGTG", "switch fluorescence ratio": 1.08}, {"sequence": "TATCACGGAA", "switch fluorescence ratio": 1.11}, {"sequence": "TATCAGAATA", "switch fluorescence ratio": 1}, {"sequence": "TATCAGCCA", "switch fluorescence ratio": 1.02}, {"sequence": "TATCAGTTGA", "switch fluorescence ratio": 1}, {"sequence": "TATCATACGA", "switch fluorescence ratio": 0.992}, {"sequence": "TATCATTTTC", "switch fluorescence ratio": 1.04}, {"sequence": "TATCCAGATG", "switch fluorescence ratio": 1.11}, {"sequence": "TATCCAGTAA", "switch fluorescence ratio": 2.2}, {"sequence": "TATCCATAAG", "switch fluorescence ratio": 1.02}, {"sequence": "TATCCATCCG", "switch fluorescence ratio": 1.03}, {"sequence": "TATCCCTTTG", "switch fluorescence ratio": 1.01}, {"sequence": "TATCCTCGGC", "switch fluorescence ratio": 1.4}, {"sequence": "TATCCTTATG", "switch fluorescence ratio": 1.03}, {"sequence": "TATCCTTGGA", "switch fluorescence ratio": 0.978}, {"sequence": "TATCGAGAAC", "switch fluorescence ratio": 0.989}, {"sequence": "TATCGCACAA", "switch fluorescence ratio": 1.14}, {"sequence": "TATCGTAATC", "switch fluorescence ratio": 1.41}, {"sequence": "TATCGTGCGG", "switch fluorescence ratio": 1.05}, {"sequence": "TATCGTGGG", "switch fluorescence ratio": 1.01}, {"sequence": "TATCGTTCCT", "switch fluorescence ratio": 1.16}, {"sequence": "TATCTAAAAG", "switch fluorescence ratio": 1.03}, {"sequence": "TATCTAACGA", "switch fluorescence ratio": 1.06}, {"sequence": "TATCTACCCA", "switch fluorescence ratio": 1.02}, {"sequence": "TATCTATGCT", "switch fluorescence ratio": 0.983}, {"sequence": "TATCTGTATG", "switch fluorescence ratio": 0.959}, {"sequence": "TATCTTCTTT", "switch fluorescence ratio": 1.02}, {"sequence": "TATGAAC", "switch fluorescence ratio": 1.06}, {"sequence": "TATGAACATA", "switch fluorescence ratio": 1.04}, {"sequence": "TATGACGGAA", "switch fluorescence ratio": 1.08}, {"sequence": "TATGAGCTAT", "switch fluorescence ratio": 0.992}, {"sequence": "TATGAGGCA", "switch fluorescence ratio": 1}, {"sequence": "TATGAGGTT", "switch fluorescence ratio": 1.03}, {"sequence": "TATGATAAAG", "switch fluorescence ratio": 1.03}, {"sequence": "TATGATGAAG", "switch fluorescence ratio": 1.02}, {"sequence": "TATGCAGGAT", "switch fluorescence ratio": 1.01}, {"sequence": "TATGCATCAT", "switch fluorescence ratio": 1.02}, {"sequence": "TATGCCATTG", "switch fluorescence ratio": 0.997}, {"sequence": "TATGCGCCAA", "switch fluorescence ratio": 1.07}, {"sequence": "TATGCGTGCA", "switch fluorescence ratio": 0.993}, {"sequence": "TATGCTCATG", "switch fluorescence ratio": 0.966}, {"sequence": "TATGCTGGT", "switch fluorescence ratio": 0.931}, {"sequence": "TATGGAAACA", "switch fluorescence ratio": 0.963}, {"sequence": "TATGGAAATC", "switch fluorescence ratio": 1.02}, {"sequence": "TATGGACCAT", "switch fluorescence ratio": 1}, {"sequence": "TATGGATAGC", "switch fluorescence ratio": 1.03}, {"sequence": "TATGGGAAGG", "switch fluorescence ratio": 1.01}, {"sequence": "TATGGGATAG", "switch fluorescence ratio": 0.983}, {"sequence": "TATGGGCACC", "switch fluorescence ratio": 1.02}, {"sequence": "TATGGGGGAC", "switch fluorescence ratio": 0.995}, {"sequence": "TATGGTACTA", "switch fluorescence ratio": 0.99}, {"sequence": "TATGGTCTAT", "switch fluorescence ratio": 0.981}, {"sequence": "TATGTAAGAT", "switch fluorescence ratio": 0.978}, {"sequence": "TATGTACTTT", "switch fluorescence ratio": 1.01}, {"sequence": "TATGTAGCGG", "switch fluorescence ratio": 1.08}, {"sequence": "TATGTAGTTG", "switch fluorescence ratio": 1.03}, {"sequence": "TATGTCAGCA", "switch fluorescence ratio": 0.984}, {"sequence": "TATGTCAGTA", "switch fluorescence ratio": 0.972}, {"sequence": "TATGTCGTGG", "switch fluorescence ratio": 1}, {"sequence": "TATGTCTATC", "switch fluorescence ratio": 1.02}, {"sequence": "TATGTGAGAG", "switch fluorescence ratio": 0.998}, {"sequence": "TATGTGATGA", "switch fluorescence ratio": 0.979}, {"sequence": "TATGTGCGGG", "switch fluorescence ratio": 1.02}, {"sequence": "TATGTGTTG", "switch fluorescence ratio": 0.97}, {"sequence": "TATGTTAGAC", "switch fluorescence ratio": 1}, {"sequence": "TATGTTTCTT", "switch fluorescence ratio": 1.03}, {"sequence": "TATGTTTGTC", "switch fluorescence ratio": 1.02}, {"sequence": "TATTAAAAGG", "switch fluorescence ratio": 1.01}, {"sequence": "TATTAAGCTT", "switch fluorescence ratio": 1.07}, {"sequence": "TATTAATCAG", "switch fluorescence ratio": 0.961}, {"sequence": "TATTACACCG", "switch fluorescence ratio": 1.06}, {"sequence": "TATTACATCC", "switch fluorescence ratio": 1.03}, {"sequence": "TATTACCCGT", "switch fluorescence ratio": 1.02}, {"sequence": "TATTACGCAC", "switch fluorescence ratio": 1.92}, {"sequence": "TATTACTCAA", "switch fluorescence ratio": 1.02}, {"sequence": "TATTAGAACG", "switch fluorescence ratio": 0.973}, {"sequence": "TATTAGCATT", "switch fluorescence ratio": 1.1}, {"sequence": "TATTATATC", "switch fluorescence ratio": 0.932}, {"sequence": "TATTATTTC", "switch fluorescence ratio": 0.967}, {"sequence": "TATTCACTGG", "switch fluorescence ratio": 1.02}, {"sequence": "TATTCAGGAG", "switch fluorescence ratio": 1.02}, {"sequence": "TATTCCACCA", "switch fluorescence ratio": 1.07}, {"sequence": "TATTCCCCGG", "switch fluorescence ratio": 1.62}, {"sequence": "TATTCCCGTG", "switch fluorescence ratio": 1.03}, {"sequence": "TATTCGCGGT", "switch fluorescence ratio": 0.995}, {"sequence": "TATTCGTAAC", "switch fluorescence ratio": 1.06}, {"sequence": "TATTCGTGGA", "switch fluorescence ratio": 0.997}, {"sequence": "TATTCGTTGT", "switch fluorescence ratio": 1.04}, {"sequence": "TATTCTGCCC", "switch fluorescence ratio": 1.02}, {"sequence": "TATTCTTACC", "switch fluorescence ratio": 1.01}, {"sequence": "TATTGAAGG", "switch fluorescence ratio": 1}, {"sequence": "TATTGAGCC", "switch fluorescence ratio": 0.995}, {"sequence": "TATTGATTCA", "switch fluorescence ratio": 0.971}, {"sequence": "TATTGATTGC", "switch fluorescence ratio": 0.999}, {"sequence": "TATTGCCGCG", "switch fluorescence ratio": 1.01}, {"sequence": "TATTGCGCCC", "switch fluorescence ratio": 1.01}, {"sequence": "TATTGGGACT", "switch fluorescence ratio": 0.986}, {"sequence": "TATTGTCCGG", "switch fluorescence ratio": 1}, {"sequence": "TATTGTTACG", "switch fluorescence ratio": 1.02}, {"sequence": "TATTGTTTCT", "switch fluorescence ratio": 1.01}, {"sequence": "TATTTAATT", "switch fluorescence ratio": 0.996}, {"sequence": "TATTTCACG", "switch fluorescence ratio": 1.05}, {"sequence": "TATTTCAGGG", "switch fluorescence ratio": 0.995}, {"sequence": "TATTTGCAGC", "switch fluorescence ratio": 1.07}, {"sequence": "TATTTGGAG", "switch fluorescence ratio": 0.987}, {"sequence": "TCAAAAAGTT", "switch fluorescence ratio": 1.03}, {"sequence": "TCAAAACAAC", "switch fluorescence ratio": 1}, {"sequence": "TCAAAAGGCA", "switch fluorescence ratio": 0.994}, {"sequence": "TCAAAAGTAT", "switch fluorescence ratio": 0.968}, {"sequence": "TCAAAGAGCG", "switch fluorescence ratio": 1.02}, {"sequence": "TCAAAGCGTG", "switch fluorescence ratio": 0.967}, {"sequence": "TCAAAGGGT", "switch fluorescence ratio": 1.02}, {"sequence": "TCAAAGGGTG", "switch fluorescence ratio": 1.15}, {"sequence": "TCAAATGGGG", "switch fluorescence ratio": 1.02}, {"sequence": "TCAAATGTGG", "switch fluorescence ratio": 1}, {"sequence": "TCAACCCATA", "switch fluorescence ratio": 0.993}, {"sequence": "TCAACGGCCG", "switch fluorescence ratio": 1.05}, {"sequence": "TCAACGTCAA", "switch fluorescence ratio": 2.19}, {"sequence": "TCAAGAGTAT", "switch fluorescence ratio": 1}, {"sequence": "TCAAGATCCA", "switch fluorescence ratio": 1.17}, {"sequence": "TCAAGATTAG", "switch fluorescence ratio": 0.976}]}]}
